Each structure is given as a SMILES string. In all, about 3,600 compounds were measured (“viability index relative to DMSO control”: median about 0.81, lowest 2% from about 0.13 on). The list shows a part of the results.
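Note: 384-well serum-free SaLSSA: MitoTracker Red CMXRos staining with saponin lysis, high-content imaging, treated-well particle count divided by plate-mean count of DMSO wells.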

For this experiment, the system named is Plasmodium falciparum NF54 stage V gametocytes. In words: viability index relative to DMSO control (fraction); higher = less gametocyte killing. The conditions noted are these: 1.25 µM, incubation time: 72 h.
As to `O=C(NNc1ccccc1F)c1c(F)cccc1Cl`, the viability index came out at 1.05.
With `Oc1ccc(-c2ccc(F)cc2)cc1CN1CCCCCC1` the figure was 0.47.
The same measure for `COC(=O)c1c(-c2c(Cl)cccc2Cl)noc1C=CNc1ccc(Cl)cc1`: 1; for `CC(=O)N(C1=C(N(C)C)C(=O)c2ccccc2C1=O)c1cc(C)cc(C)c1`: 0.0811.
Compound `CC(=O)Nc1ccc(S(=O)(=O)Nc2ccccc2[N+](=O)[O-])cc1` had a viability index of 0.935.
The same measure for `N=C(NN=Cc1ccc([N+](=O)[O-])cc1)NN=Cc1ccc([N+](=O)[O-])cc1`: 0.785.
Turning to `CCOC(=O)C1=C(C)NC2=C(C(=O)CC(c3ccc(OC)c(OC)c3)C2)C1c1cccc(Cl)c1Cl` (stereo unspecified), the viability index worked out at 0.772.
Regarding `Cc1cc(N2CCC(C)CC2)nc2ccc(NC(=O)c3ccc([N+](=O)[O-])o3)cc12`, the viability index worked out at 0.12.
The same measure for `CN(C)c1cc[n+](CC(=O)c2cccs2)cc1`: 0.725; for `COc1ccc2ccccc2c1C1CC(=O)N2CN(Cc3ccco3)CSC2=C1C#N` (stereo unspecified): 0.884.
Take `CC(=O)C1=C(O)C(=O)N(c2ccc(Br)cn2)C1c1ccccc1[N+](=O)[O-]` (stereo unspecified): the viability index worked out at 0.779.
With `CC(C)(C)c1ccc(NC(=O)CN2CCCCC2)cc1` the figure was 0.788; with `O=C(C[n+]1cc(-c2ccc(Cl)cc2)n2c1CCC2)c1ccc(C2CCCCC2)cc1`, 1.26.
The same measure for `COc1cc(OC)cc(C(=O)Nc2cc(C(=O)N3CCC(Cc4ccccc4)CC3)ccc2N2CC3CC(C2)c2cccc(=O)n2C3)c1` (stereo unspecified): 1.14; for `Cc1[nH]c2ccccc2c1C=Cc1cc[n+](C)cc1`: 1.08; for `CCc1ccc(C(=O)C[n+]2cc(-c3ccc(C)cc3)n3c2CCC3)cc1`: 0.978.
`COc1ccc2c(c1OC)C(=O)N(c1ncc(C)s1)C2` came in with a viability index of 0.694.
With `COc1ccccc1N(CN1C(=O)c2ccc(Br)cc2C1=O)C(C)=O` the figure was 1.09.
The compound `CCN(CC)C(=O)COc1ccc(-c2nnc(N3CCCCC3)c3ccccc23)cc1` had a viability index of 1.28.
The same measure for `Cc1c(-c2ccc(Cl)cc2)[n+]2c(n1-c1ccccc1)SCCC2`: 1.39; for `COc1ccc(C2CC(=O)C3=C(C2)NC(C)=C(C(=O)OC2CCCC2)C3c2ccccc2)cc1` (stereo unspecified): 0.722.
The same measure for `COc1ccc(C(=O)C2CC2c2ccc(Cl)cc2)cc1` (stereo unspecified): 0.742; for `O=S(=O)(NCCNc1ncnc2scc(-c3ccccc3)c12)c1ccc(Cl)c(Cl)c1`: 0.554; for `CCN1C(=Cc2ccc3ccccc3[n+]2CC)C=Cc2ccccc21`: 0.348.
In turn, `S=C(Nc1ccccc1)N1CCCN(c2nc3ccc(Cl)cc3s2)CC1` came in with a viability index of 0.747.
The same measure for `C(#Cc1ccccc1)C[N+]1(CCOc2ccccc2)CCCCC1`: 0.706; for `CCCOC(=O)C1=C(C)NC2=C(C(=O)CC(c3ccc(Cl)cc3)C2)C1c1ccc(Cl)cc1` (stereo unspecified): 0.71; for `O=c1c(-c2ccc(Cl)cc2Cl)c(C(F)(F)F)oc2c(CN3CCCCC3)c(O)ccc12`: 1.
On to `Cc1ccnc(NS(=O)(=O)c2ccc(NC(=O)C(C)C)cc2)n1`, for which the viability index is 0.88.
On to `CC(=O)N(C1=C(N2CCOCC2)C(=O)c2ccccc2C1=O)c1cc(C)cc(C)c1`, for which the viability index was determined as 0.0695.
In turn, `CC(=O)N1CCC(N(C(=O)Nc2c(F)cccc2F)C(C)C)CC1` registered a viability index of 0.988.
On to `Cc1cccc(-c2ccc(NC(=O)C3CCN(Cc4cnc(C)nc4)CC3)cc2)c1`, for which the viability index is 0.683.
The same measure for `CC(=O)NC1=NN(C(C)=O)C(C)(c2ccc([N+](=O)[O-])cc2)S1` (stereo unspecified): 0.586; for `CCN1C=CC(=Cc2cccc[n+]2C)c2ccccc21`: 1.09.
With `O=C(NN1CCOCC1)c1ccc(Br)cc1` the figure was 0.951.
The compound `CC1(C)Oc2ccc3ccc(=O)oc3c2CC1=NNC(N)=S` displayed a viability index of 0.717.
The same measure for `CN(C)CCCn1c(N)c(-c2nc3ccccc3[nH]2)c2nc(C#N)c(C#N)nc21`: 0.302; for `O=C1CC(c2ccccc2)Oc2ccc(F)cc21` (stereo unspecified): 0.826; for `CC1=C(C(=O)OC2CCCCC2)C(c2ccc(Cl)c(Cl)c2)C2=C(CCCC2=O)N1` (stereo unspecified): 0.691.
The same measure for `COc1cc2c(cc1OC)C(CCCCCl)=NC(C)(C)C2`: 0.821; for `O=C(CC(=O)N1CCOCC1)Nc1ccc2nc3n(c(=O)c2c1)CCCCC3`: 1.18.
The compound `COc1nc(C)nc(NC(=O)NC(=O)c2c(OC)ccc([N+](=O)[O-])c2OC)n1` had a viability index of 0.455.
The same measure for `COc1cc(C=C2CCC(=Cc3cc(OC)c(OC)c(OC)c3)C2=O)cc(OC)c1OC`: 0.582.
Regarding `Cc1noc(-c2ccc(O)cc2O)c1-c1ccc2c(c1)OCCO2`, the viability index came to 0.587.
For the compound `Cc1cc(NC(=O)c2ccc(S(=O)(=O)N(Cc3ccccc3)C(C)C)cc2)no1`, the viability index came to 0.669.
The compound `COc1ccc(C(NC(=O)c2cccnc2)c2cc(Cl)c3cccnc3c2O)cc1` (stereo unspecified) showed a viability index of 1.13.
Consider `O=C(Cn1c2ccccc2c(=O)c2ccc(Cl)cc21)Nc1ccc(C(F)(F)F)cc1`, for which the viability index was 0.534.
For the compound `CC1CCN(S(=O)(=O)c2ccc(C(=O)NCc3ccco3)cc2)CC1`, the viability index amounted to 1.17.
With `O=C(CSc1ccc(Cl)cc1)NN=C1C(=O)Nc2ccccc21` the figure was 1.32.
With `COC(=O)C1C(=O)C2=C(CC1C)NC(=O)CC2c1ccc(Cl)cc1Cl` (stereo unspecified) the figure was 0.442; with `COC(=O)C1=C(C)NC2=C(C(=O)CC(c3ccc(OC)c(OC)c3)C2)C1c1ccccc1Br` (stereo unspecified), 0.903; with `COc1ccc(C=NNc2cc(C)nc3ccc(OC)cc23)c(OC)c1`, 0.591.
With `Cc1cccc(-c2nc3cc(NC(=S)NC(=O)c4ccc(Cl)cc4)ccc3o2)c1` the figure was 0.808.
Compound `CCOC(=O)c1cnc2ccc(Cl)cc2c1NCCCN(C)C` displayed a viability index of 0.66.
For the compound `CCN(CC)CCNc1ccc(Nc2ccnc3cc4ccccc4cc23)cc1`, the viability index was 0.423.
Consider `COc1ccc(OC)c(C2CC(=O)C3=C(C2)NC(=O)CC3c2ccc([N+](=O)[O-])cc2)c1` (stereo unspecified), for which the viability index is 0.751.
As for `C=CCOc1cccc(/C=C2/NC(C)=C(C(=O)OCC)C2=O)c1`, the viability index was 1.08.
The same measure for `CCN(CC)CCCC(C)Nc1c2ccc(Cl)cc2nc2ccc(OC)cc12` (stereo unspecified): 0.495; for `CNC(=O)c1nn(C)c2c1CC(NCC1CCCCC1)CC2` (stereo unspecified): 0.702.
`Cc1cc(C)n(CC(O)Cn2c3ccc(Cl)cc3c3cc(Cl)ccc32)n1` (stereo unspecified) returned a viability index of 0.581.
The same measure for `O=c1c(=O)n(Cc2cccc(C(F)(F)F)c2)ccn1CCc1ccccc1`: 0.751.
`CC1(C)C2CCC(C2)C1(C)NC(=S)NN=Cc1ccccn1` (stereo unspecified): the viability index turned out to be 0.0373.
With `CCCN(CCC)CCNC(=O)c1cc2c(-c3ccc(Cl)cc3)nn(C)c2s1` the figure was 0.9.
The same measure for `COc1ccc(-n2nc([N+](=O)[O-])c(Nc3ccc([N+](=O)[O-])cc3C)[n+]2[O-])cc1`: 1.01; for `CC(C)CN1C(=O)c2ccccc2C(C(=O)Nc2ccccc2F)C1c1cccs1` (stereo unspecified): 0.446; for `Nc1ccc(-c2nc3ccc(-c4nc5ccc(N)cc5[nH]4)cc3[nH]2)cc1`: 0.573.
On to `Cc1occc1C(=O)NN=CC(Cl)=Cc1ccccc1`, for which the viability index was found to be 0.819.
With `COc1ccc(-[n+]2cc(-c3ccc(Cl)cc3)n3c2SCCC3)cc1` the figure was 0.842.
The compound `COc1ccc2c(c1)N(C(=O)CSc1nc3ccccc3o1)C(C)(C)c1ssc(=S)c1-2` yielded a viability index of 0.611.
With `CSc1cccc(NC(=O)C2C3C=CC4(O3)C2C(=O)N(CCN2CCCCC2)C4C(=O)NC2CCCC(C)C2C)c1` (stereo unspecified) the figure was 1.2; with `CCN(CC)c1nc(-c2cccnc2)nc2ccccc12`, 0.682.
With `CCN1CCCC1CNc1ncnc2c1[nH]c1ccc(F)cc12` (stereo unspecified) the figure was 1.2; with `C=CCc1c(C)nc2ccccc2c1O`, 0.713.
With `CC1=C(C(=O)OC2CCCCC2)C(c2ccc(F)c(F)c2)C2=C(CCCC2=O)N1` (stereo unspecified) the figure was 0.855; with `CCOc1cc2c(cc1OCC)C(c1cc(OC)c(O)cc1Cl)NCC2` (stereo unspecified), 1.05; with `COc1cc(-c2nc(-c3cccc(Cl)c3)c(-c3ccccc3)[nH]2)cc(OC)c1O`, 1.09.
The compound `Cc1cc(C)c2c(c1)-c1c(ssc1=S)C(C)(C)N2C(=O)COc1nc2ccccc2s1` showed a viability index of 0.23.
With `COC(=O)C1=C(C)NC2=C(C(=O)CC(c3ccc(OC)c(OC)c3)C2)C1c1ccc(F)cc1` (stereo unspecified) the figure was 0.707; with `CC1CC(N(C(=O)c2ccc(Cl)cc2Cl)c2ccccc2)c2ccccc2N1C(=O)c1ccc(Cl)cc1` (stereo unspecified), 0.723.
With `COc1ccc(Nc2nc(NCc3ccccc3)c3ccccc3n2)cc1` the figure was 0.58.
As to `O=C(CSc1nc2ccccc2c(=O)n1-c1ccc(C(=O)N2CCOCC2)cc1)c1ccccc1`, the viability index turned out to be 1.42.
The same measure for `O=[N+]([O-])c1ccc2nc(Nc3ccc(Cl)c(Cl)c3)c(Nc3ccc(Cl)c(Cl)c3)nc2c1`: 0.0962; for `Cc1ccc(-c2nn(CC(=O)Nc3cccc(C)c3)c(=O)c3ccccc23)cc1`: 0.97; for `Cc1c(NC(=S)N2CCOCC2)c(=O)n(-c2ccccc2)n1C`: 1.14.
The same measure for `Cc1c(Cl)cccc1NC(=S)N(CCCN(C)c1ccccc1)Cc1cccn1Cc1ccc(Cl)cc1`: 1.48.
The same measure for `CCOC(=O)c1nnn(-c2nonc2N)c1-c1ccc(OC)c(OC)c1`: 0.855; for `CC(=O)N(C1=C(N(C)C)C(=O)c2ccccc2C1=O)c1cccc(Cl)c1`: 0; for `Cc1ccc(Nc2nc(NCc3ccccc3)c3ccccc3n2)cc1`: 0.388.
In turn, `Oc1ccc(-c2ccc3c(c2)OCO3)cc1CNCC1(N2CCCCC2)CCCCC1` came in with a viability index of 0.365.
The same measure for `CC(C)C1Oc2cc3oc(=O)ccc3cc2C1=NO` (stereo unspecified): 0.842; for `CCOc1ccccc1NC(=O)Cn1c(=O)n(Cc2ccccc2)c(=O)c2c(C)c(C(=O)N(C)C)sc21`: 0.83.

Source of the values: the supplement of paper PMC4723716.
